Values marked as one replicate rest on one cluster of the flow cell; about a third of the high ones do not repeat.
Tested on: ATP
Assay: switch fluorescence ratio, 500 uM ATP over buffer (Cy3 cluster intensity, sum of 5 cycles each) (fold (ratio)); higher = stronger signal-on switching upon ATP binding; sequences stand for … in TCGTCGGCAGCGTCAGATGTGTATAAGAGACAGTTTTTTTTTTTTTTTTTTTTTTTTT…TC
Details: aptamer strand: ATP DNA aptamer (quencher-CACCTGGGGGAGTATTGCGGAGGAAGG + anchor), 100 nM annealed; ATP concentration: 500 uM; one replicate
Outline: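 After annealing to 100 nM quencher-labelled ATP aptamer, Cy3-labelled switching-strand clusters on a modified Illumina MiSeq flow-cell were imaged in selection buffer. A second image followed after 15 min with 500 uM ATP at 22 °C, and five such buffer/ATP cycles were done, each separated by NaOH stripping and re-annealing. The fluorescence ratio, averaged per switch-domain sequence, is summed target-cycle over summed buffer-cycle Cy3 intensity per cluster, with clusters outside 100-1000 RFU excluded.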
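Further: ATP exposure 15 min at 22 °C before imaging.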

Row | Sequence | switch fluorescence ratio
1 | TCGCAGTCAG | 1.19
2 | TCGCAGTTAG | 1.49
3 | TCGCAGTTCG | 1.13
4 | TCGCATGAGG | 0.984
5 | TCGCATGCTT | 1.19
6 | TCGCATTGAT | 1.32
7 | TCGCCCCGGA | 1.07
8 | TCGCCTAGCT | 0.961
9 | TCGCCTCCTT | 1.26
10 | TCGCCTCGTA | 1
11 | TCGCCTGCCA | 1.08
12 | TCGCGCGCAA | 3.4
13 | TCGCGCTGGG | 1.03
14 | TCGCGGAAC | 2.44
15 | TCGCTACGGG | 1.02
16 | TCGCTAGAAT | 0.994
17 | TCGCTGCCTC | 1.04
18 | TCGCTGCGGG | 1
19 | TCGCTGGGGT | 1.39
20 | TCGCTTATAA | 1.71
21 | TCGGACATCG | 1.03
22 | TCGGACGCCA | 1.5
23 | TCGGACGTTT | 1.02
24 | TCGGAGTTGC | 0.942
25 | TCGGATTCTG | 0.978

Row | Sequence | switch fluorescence ratio
26 | TCGGATTGAG | 0.998
27 | TCGGCCGACT | 1.06
28 | TCGGCCGTCA | 1.03
29 | TCGGCGTTAG | 1.05
30 | TCGGCTATCA | 0.962
31 | TCGGCTGATG | 1
32 | TCGGCTGTAC | 2.54
33 | TCGGCTTCGG | 1.03
34 | TCGGGAAAGA | 1.12
35 | TCGGGACCT | 1.03
36 | TCGGGAGGGA | 0.996
37 | TCGGGAGTCG | 1.03
38 | TCGGGCGCCT | 1.23
39 | TCGGGCTAGG | 0.966
40 | TCGGGGAGTG | 1.01
41 | TCGGGGCAAC | 1.12
42 | TCGGGGCGGT | 1.01
43 | TCGGGTTT | 1.02
44 | TCGGTAAAGC | 0.963
45 | TCGGTATACA | 1.02
46 | TCGGTCACGG | 0.988
47 | TCGGTGATAG | 1.05
48 | TCGGTGTAGG | 1.02
49 | TCGGTGTGG | 0.916
50 | TCGGTTCCTT | 1.02

Row | Sequence | switch fluorescence ratio
51 | TCGGTTCGAA | 0.999
52 | TCGGTTCTCT | 0.992
53 | TCGGTTGCAC | 1.04
54 | TCGTAATGGG | 1.03
55 | TCGTAATTCT | 1.18
56 | TCGTAGAAG | 0.942
57 | TCGTAGGATA | 1
58 | TCGTATCCGG | 1.02
59 | TCGTATCTGG | 0.955
60 | TCGTCCCCTC | 1.11
61 | TCGTCGAAGG | 1.03
62 | TCGTCGAGTA | 0.992
63 | TCGTCGCCTG | 0.989
64 | TCGTGAAGCC | 1
65 | TCGTGATATA | 0.997
66 | TCGTGCACCT | 1.03
67 | TCGTGCGGCA | 0.951
68 | TCGTGCGTTT | 0.993
69 | TCGTGGGGCA | 0.958
70 | TCGTGGTCAG | 1.02
71 | TCGTTAACGG | 0.99
72 | TCGTTCCAGC | 1.01
73 | TCGTTCGGCC | 1.01
74 | TCGTTCTGTC | 1.05
75 | TCGTTGCTGT | 0.997

Row | Sequence | switch fluorescence ratio
76 | TCGTTGTAAT | 1.04
77 | TCGTTGTC | 0.915
78 | TCGTTGTTAC | 1.07
79 | TCGTTTATTC | 0.994
80 | TCTAAGATCT | 1
81 | TCTAAGTGAT | 0.98
82 | TCTAATACTG | 1.4
83 | TCTAATCGGG | 1.01
84 | TCTAATTGAT | 0.958
85 | TCTACAATGA | 1
86 | TCTACATTT | 1.01
87 | TCTACCGGAA | 1.8
88 | TCTACCTCAC | 1.45
89 | TCTACCTCTA | 1.05
90 | TCTACGGATA | 1.37
91 | TCTACTGTAA | 1.21
92 | TCTAGAATGT | 1
93 | TCTAGAGCCC | 0.993
94 | TCTAGATACC | 1.01
95 | TCTAGATACG | 1.09
96 | TCTAGCCCCA | 1.06
97 | TCTAGGCAGG | 1.04
98 | TCTAGTATGG | 1
99 | TCTAGTCTCG | 1.05
100 | TCTAGTCTGT | 1.01

— the supplement of paper PMC10126150
